The DeepSol protein solubility set

Assay: soluble on expression in E. coli; label from the status in PepcDB or PDB records

Sequence	soluble on expression in E. coli
MASSTSLPAPGSRPKKPLGKMADWFRQTLLKKPKKRPNSPESTSSDASQPTSQDSPLPPSLSSVTSPSLPPTHASDSGSSRWSKDYDVCVCHSEEDLVAAQDLVSYLEGSTASLRCFLQLRDATPGGAIVSELCQALSSSHCRVLLITPGFLQDPWCKYQMLQALTEAPGAEGCTIPLLSGLSRAAYPPELRFMYYVDGRGPDGGFRQVKEAVMRYLQTLSLEHHHHHH	not soluble
MIFSVLCSDSRRLNALHALISAGFTMDFKAIQALTANDMAKVNETIHAQLNSDVSLINQLGFYIISGGGKRLRPLLAVLSAKALGYQGSHHTTAAAFIEFIHTATLLHDDVVDESDLRRGKATANAAFGNAASVLVGDFIYTRSFQMMTELGSMKILKLMSDAVNVIAEGEVQQLMNCNDPDTTEASYMQVIYSKTARLFEAATQIGAILCDASPEVELAMQNYGKYLGTAFQLIDDVMDYTSDGDEMGKNVGDDLAEGKPTLPLLYAMQHGNPEQAAMIREAIEKANGMSRLNEILAAMEQTGSLQYTIEKALHEADKAIAELAILPESEYKQALITLAHMAVNRSK	not soluble
MSLTNVSGVDFQLRSVPLLSRVGADRADRLRTDMEAAAAGWPGAALLRVDSRNRVLVANGRVLLGAAIELADKPPPEAVFLGRVEGGRHVWAVRAALQPIADPDIPAEAVDLRGLGRIMDDTSSQLVSSASALLNWHDNARFSALDGAPTKPARAGWSRVNPITGHEEFPRIDPAVICLVHDGADRAVLARQAAWPERMFSLLAGFVEAGESFEVCVAREIREEIGLTVRDVRYLGSQQWPFPRSLMVGFHALGDPDEEFSFSDGEIAEAAWFTRDEVRAALAAGDWSSASESKLLLPGSISIARVIIESWAACEEGHHHHHH	not soluble
